In all, about 110,000 compounds were measured (“z-score”: median about -0.1, highest 2% from about 2 on). This is one part of the list. Active and inactive are the calls of the source.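 Rule for the calls: active = z-score in the third read window above 3 or below -3; inactive = the rest.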

For the assay, the target named is Metabotropic glutamate receptor 8 (Rattus norvegicus) (UniProt P70579). The assay is described as follows: rat mGluR8 modulators via GIRK flux, primary screen, cell-based, thallium flux, HTS (AID 488969). The following applies: HEK293 rat mGluR8, GIRK (G protein-gated inwardly rectifying potassium channel) thallium flux, FluoZin2; at 10 µM; stronger effect = higher value; submaximal glutamate (EC20) added with thallium.
UniProt P70579, sequence (P70579 whole entry, looked up): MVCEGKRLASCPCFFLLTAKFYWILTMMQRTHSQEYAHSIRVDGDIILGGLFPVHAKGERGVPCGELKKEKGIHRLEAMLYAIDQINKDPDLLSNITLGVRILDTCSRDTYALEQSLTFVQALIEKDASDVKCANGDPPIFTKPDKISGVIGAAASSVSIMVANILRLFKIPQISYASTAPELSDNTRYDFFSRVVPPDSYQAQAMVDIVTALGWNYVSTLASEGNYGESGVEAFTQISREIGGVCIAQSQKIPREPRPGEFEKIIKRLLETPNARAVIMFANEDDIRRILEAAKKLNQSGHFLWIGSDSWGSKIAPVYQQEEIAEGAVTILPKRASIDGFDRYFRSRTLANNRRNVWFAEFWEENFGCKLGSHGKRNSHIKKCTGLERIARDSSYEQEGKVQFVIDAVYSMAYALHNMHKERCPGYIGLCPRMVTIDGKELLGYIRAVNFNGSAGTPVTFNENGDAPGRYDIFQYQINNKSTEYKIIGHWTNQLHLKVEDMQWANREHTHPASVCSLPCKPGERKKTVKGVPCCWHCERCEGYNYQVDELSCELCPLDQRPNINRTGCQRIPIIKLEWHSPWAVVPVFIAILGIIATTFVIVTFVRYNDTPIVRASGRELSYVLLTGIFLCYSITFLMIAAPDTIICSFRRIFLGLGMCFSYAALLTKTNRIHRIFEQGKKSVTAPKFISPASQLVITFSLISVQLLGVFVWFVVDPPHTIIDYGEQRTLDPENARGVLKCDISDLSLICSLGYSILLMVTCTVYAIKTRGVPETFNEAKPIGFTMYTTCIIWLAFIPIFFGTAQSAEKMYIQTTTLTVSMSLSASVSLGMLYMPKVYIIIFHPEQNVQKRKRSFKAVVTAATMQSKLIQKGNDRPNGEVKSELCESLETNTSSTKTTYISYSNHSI
The molecule `O=C(O)c1ccc(CSc2nc(-c3ccc(Cl)cc3)cc(C(F)(F)F)n2)cc1` displayed a z-score of -0.682.
`CNS(=O)(=O)c1cnccc1N1CCN(c2cccc(Cl)c2)CC1` gave a z-score of -0.238.
In the case of `Clc1ccc(/C=C/c2nc3ccccc3[nH]2)c(Cl)c1` it was -0.57.
As for `COC(=O)c1cc(NC(=O)CC2NC3CCCCC3NC2=O)cc(C(=O)OC)c1` (centres undefined), the z-score was determined as 0.0785.
In the case of `COC(=O)c1ccccc1S(=O)(=O)N(Cc1cc2cc3c(cc2[nH]c1=O)OCO3)C1CCCCC1` it was 0.242; in that of `O=C(O)CC(NC(=O)C1c2ccccc2Oc2ccccc21)c1ccc(Cl)cc1` (centres undefined), -0.121.
Under `CC1(C)Cc2c(sc3nc(SCC(=O)NCc4ccccc4)n(-c4ccccc4)c(=O)c23)CS1` stands 0.0784.
In the case of `COc1cccc(NC(=O)COC(=O)c2c(-c3ccccc3)noc2C)c1` it was 0.34; in that of `Cc1cc(OCC(=O)O)c2ccccc2n1`, -0.146.
`COc1ccc(-c2noc(CN(C(=O)c3c(-c4ccccc4Cl)noc3C)C(C)C)n2)cc1`: the z-score is -0.709.
In turn, `Cn1cc(S(=O)(=O)Nc2ccc(F)cc2F)c(=O)n(C)c1=O` had a z-score of -0.722.
Turning to `COc1ccc(-c2c(C(C)=O)c(C)nc3sc4c(=O)n(-c5ccc(C)cc5)nnc4c23)cc1`, the z-score was -0.165.
Regarding `CCOc1ccc(OCC)c(NC(=O)CNS(=O)(=O)c2cccs2)c1`, the z-score was -1.51.
`COc1cc(/C=C2/SC(=S)N(CC3CCCO3)C2=O)ccc1O` (centres undefined) came in with a z-score of 1.69.
Under `CCOC(=O)C1CCCN(CCC(C)c2ccccc2)C1` (centres undefined) stands 0.261; under `Cc1cc(C)nc(SCCS(=O)(=O)Cc2ccc(Cl)cc2)n1`, 0.154.
In the case of `O=C(CSc1nc2ccccc2c(=O)n1CCCN1CCOCC1)Nc1cccc(S(=O)(=O)N2CCCCCC2)c1` it was 0.74.
Under `Cc1cc(N2CCC(C)CC2)nc(-n2nc(C)cc2C)n1` stands -0.389; under `Cc1ccc(NC(=O)c2sc3ccccc3c2Cl)nc1`, -0.355.
`Cc1ccc(-c2nnn(CC(=O)N(c3ccccc3)C(C(=O)NC3CCCC3)c3ccco3)n2)o1` (centres undefined) showed a z-score of 0.0303.
Under `Cc1ccc(NC(=S)NCc2cccnc2)cc1` stands -0.132.
In the case of `O=C(c1cccnc1)N1CCN(C(=O)c2ccco2)CC1` it was 0.0314; in that of `CCOC(=O)NC1(NCC(C)C)Oc2ccccc2O1`, -0.313.
In turn, `Nc1nc2n(n1)C(c1ccc(F)cc1)CC(c1ccc(F)cc1)N2` (centres undefined) came in with a z-score of 0.0113.
`Cc1ccc(-n2c(SCC(=O)Nc3cc(C)on3)nc3c([nH]c4ccccc43)c2=O)cc1` had a z-score of 0.754.
Under `c1ccc(Cn2nnnc2C(c2ccccn2)N2CCN(c3ccccc3)CC2)cc1` (centres undefined) stands -0.925; under `Cc1cc(C)n(C(=O)CCCCCC(=O)n2nc(C)cc2C)n1`, -0.425; under `COc1cccc(N=c2oc3ccc(OC)cc3cc2-c2nc3ccccc3[nH]2)c1`, 0.503.
`Cc1cc(C)cc(C(=O)O/N=C(\N)c2ccc(Br)cc2)c1` returned a z-score of 0.0108.
In the case of `CCOc1ccc(N(CC(=O)Nc2ccc(OC)cc2)S(=O)(=O)c2c(C)noc2C)cc1` it was -0.129.
In the case of `COc1ccc(Nc2nc(-c3cccs3)nc3ccccc23)cc1`, the z-score was -0.199.
The molecule `O=C(NN1C(=O)c2ccccc2C1=O)C1CCCCC1` gave a z-score of -0.39.
Under `CC1=NCCN1S(=O)(=O)c1cc(Cl)ccc1Cl` stands 0.459; under `CCn1nnc(C(=O)O)c1C(=O)O`, 0.0169; under `CCCCNS(=O)(=O)c1ccc(S(=O)(=O)NCc2ccncc2)cc1`, 2.5.
Under `O=C(CCN1C(=O)/C(=C/c2cccs2)SC1=S)NC1=NCCS1` stands -0.0426; under `COc1ccccc1NC(=O)Oc1ccc(C(C)=O)cc1`, -0.0596.
In the case of `O=C(COc1ccc(Cl)cc1)OCC(=O)N1CCCc2ccccc21` it was -0.548; in that of `Cc1nc(C)c(C(=O)NNC(=O)c2ccc(Br)cc2)s1`, -0.0708; in that of `CCOC(=O)C(=O)/C(=C\N(C)C)c1onc(-c2c(F)cccc2Cl)c1C(=O)OC`, 1.03.
Molecule `C=CCc1ccc(OCCCN2CCCC(C)C2)c(OC)c1` (centres undefined) gave a z-score of 1.11.
Under `CCCCc1c(O)nc2sccn2c1=O` stands -0.251; under `Cc1ccc(S(=O)(=O)N(C)C)cc1NC(=O)CCNC(=O)c1ccccc1Cl`, -0.212.
Under `CC1(C)CC(=O)C2=C(C1)OC1=C(C(=O)CC(C)(C)C1)C2(C)C` stands -0.182; under `NC(=O)C1CCN(CCCNC2CC(=O)N(Cc3ccc(N4CCCC4=O)cc3)C2=O)CC1` (centres undefined), 1.16.
In the case of `CCOC(=O)CSc1nc(C)cc(C)n1` it was -0.0344.
In turn, `CCOc1ccc(OC(=O)NC(c2ccccc2)C(Cl)(Cl)Cl)cc1` (centres undefined) showed a z-score of -0.048.
In the case of `c1ccc(-c2c(-c3ccccc3)n(Cc3ccco3)c3ncnc(NCCCn4ccnc4)c23)cc1` it was 2.78; in that of `CCOC(=O)N1CCC(NS(=O)(=O)c2cc3c(cc2Cl)NC(=O)CO3)CC1`, 0.122.
Consider `O=C(NC1CCCCCC1)c1cccc(N2CCCC2=O)c1`, for which the z-score was -0.399.
Under `COc1ccccc1C1/C(=C(/O)c2ccc(C)cc2)C(=O)C(=O)N1Cc1ccco1` (centres undefined) stands -0.766; under `CCC(=O)Nc1ccc(Cl)c(NC(=O)c2ccc(Br)o2)c1`, -1.17; under `COC(=O)C1=C(C)OC(N)=C(C#N)C1c1ccccc1` (centres undefined), -0.92.
Molecule `CCOC(=O)c1[nH]c(C)c(C(=O)c2ccc(C)cc2)c1C` had a z-score of -0.701.
In the case of `Cc1ccc(-n2c(N)c(C#N)c(-c3ccc(Cl)cc3)c(C#N)c2=O)cc1` it was -0.0258; in that of `C=CCN1C(=O)C(CC(=O)NCC)SC1=Nc1ccc(S(N)(=O)=O)cc1` (centres undefined), 0.98.
Under `Nc1ccc(S(=O)(=O)c2ccc(Cl)cc2)cc1` stands -0.574; under `CCC(=O)N1c2ccccc2C(N(C(C)=O)c2ccccc2)CC1C` (centres undefined), -0.0628.
Under `O=c1c2ccccc2nc2n1C(CSc1ccc(Cl)cc1)CN2` (centres undefined) stands -0.214; under `CCOc1cc(CNCc2ccncc2)cc(Br)c1OCc1ccc(F)cc1`, 0.596.
Take `COc1cccc(/C=N/n2c(-c3cccs3)n[nH]c2=S)c1`: the z-score was active: 3.25.
`CC#CCCCC(=O)Nc1ccccc1C(=O)O` yielded a z-score of 0.113.
Under `Cn1cc([N+](=O)[O-])c(C(=O)Nc2ccc(Br)cn2)n1` stands 0.227; under `Cc1ccc(NC(=O)CSC2=C(C#N)C(c3ccco3)C3=C(CC(C)(C)CC3=O)N2)cc1` (centres undefined), -2.52; under `O=C1CCCCC1C(Nc1ccc(Cl)cc1)c1ccccc1` (centres undefined), -0.186.
In the case of `Cc1cc(C(=O)N/N=C/c2cccc([N+](=O)[O-])c2)c2ccccc2n1` it was 0.333; in that of `O=C(O)CCn1c(C(=O)O)cc2sccc21`, 0.105.
`COc1ccccc1CNC(=O)C1CCCN(S(=O)(=O)c2cnc[nH]2)C1` (centres undefined) showed a z-score of -0.0986.
Molecule `Cc1c(Cl)cccc1NC(=O)[C@@H](NC(=O)c1ccccc1Cl)C(C)C` came in with a z-score of 1.14.
In the case of `CCOC(=O)c1cc(C)n(Cc2ccc(OCC)c(OC)c2)c1C` it was -0.962; in that of `COCC(N)(c1ccccc1)c1nc2ccccc2n1C` (centres undefined), -0.582.
Under `COc1cccc(/C=N/NC(=O)C(=O)N2CCCC2)c1OC` stands -0.494; under `Cn1c(CCNC(=O)c2ccco2)nc2cc(NC(=O)C3CCCCC3)ccc21`, 0.619; under `O=C(Nc1ccc2c3c(cccc13)CC2)c1ccco1`, 0.0277.
Under `Cc1cc(C)n(-c2nc(SCCN(C)C)c3c4c(sc3n2)COC(C)(C)C4)n1` stands 0.446; under `CCCNC(=O)COc1ccc(S(=O)(=O)Nc2ccc(C)cc2)cc1`, 0.229; under `CCCC(C(=O)NCc1ccccc1)N(C(=O)Cn1nnc(-c2cccs2)n1)c1ccc2c(c1)OCCO2` (centres undefined), 0.325.
`CC(C)n1c(NCCc2ccccc2)nc2c1c(=O)n(C)c(=O)n2C` displayed a z-score of 2.39.
In the case of `COc1ccc(O[C@@H]2O[C@H](COC(C)=O)[C@@H](OC(C)=O)[C@H](OC(C)=O)[C@H]2NC(C)=O)cc1` it was -0.217; in that of `Cc1cc(S(=O)(=O)N2CCCC2)ccc1OCC(=O)NCc1ccco1`, 0.134; in that of `N#Cc1c2c(c(-n3cnc4ccccc43)n3c1nc1ccccc13)CCC2`, -0.0882.
In the case of `O=P(O)(O)COc1ccccc1P(=O)(c1ccccc1)c1ccccc1` it was 0.0273; in that of `Cc1ccc(C(=O)c2c[nH]c3c(F)cc(F)cc3c2=O)cc1`, -0.0527; in that of `Cc1ccc(-c2nnc3c4ccccc4c(C)nn23)cc1S(=O)(=O)N1CCN(C)CC1`, -0.999.
As to `O=C(Nc1nncs1)c1ccccc1Br`, the z-score is -0.0935.
Under `CC1=C(C(=O)N(C)Cc2ccccc2)C2(CCC(C)CC2)OC1=O` (centres undefined) stands -0.138; under `CCC(C)NS(=O)(=O)c1ccc(OCC(=O)N2CCCCC2)cc1` (centres undefined), -0.0559.
In turn, `CCN(CC)S(=O)(=O)c1ccc(NC(=O)COc2c(OC)cccc2OC)cc1` registered a z-score of -0.124.
For the molecule `Cc1noc2ncnc(Sc3ccccc3Cl)c12`, the z-score is -0.264.
Under `O=C(NCc1ccco1)C(c1ccc(F)cc1)N(Cc1cccnc1)C(=O)Cn1nnc2ccccc21` (centres undefined) stands -0.197; under `Cc1ccc(S(=O)(=O)Cc2ccc(C(=O)N3CCN(c4ccccn4)CC3)o2)cc1`, -0.132.
As for `CCNC(=S)N1CCC(NC(=O)C2CCCCC2)CC1`, the z-score is 0.033.
As to `CC1CCN(C(=O)CSc2nnc(CN3CCOCC3)n2-c2ccccc2)CC1`, the z-score was -0.0153.
`COc1ccc(N(CC(=O)NCc2ccco2)S(C)(=O)=O)cc1Cl` came in with a z-score of -0.0738.
For `O=C(NCCC1=CCCCC1)c1ccc(Cl)c([N+](=O)[O-])c1`, the z-score is -0.0902.
Under `Cc1cccc(NC(=O)CC2C(=O)NCCN2C(=S)Nc2ccccc2)c1` (centres undefined) stands -0.0177; under `CN(c1ccccc1)S(=O)(=O)c1cccc(C(=O)OCC(=O)NCc2ccc3c(c2)OCO3)c1`, -0.536.
Turning to `CCCc1nnc(NC(=O)CCC(=O)N2CCCCC2CC)s1` (centres undefined), the z-score stood at 0.821.
Under `Cc1ccc(-c2noc(C3CCCN(C(=O)C4CCCCC4)C3)n2)o1` (centres undefined) stands -0.391; under `CC(C)(C)c1ccc(NC(=O)COc2ccc(-n3ccnc3)cc2)cc1`, -0.107; under `CCc1ccccc1NC(=O)CCCSc1nc2ccccc2s1`, -0.128.
Under `CC(Oc1ccc(Cl)cc1Cl)C(=O)NC1CCSC1=O` (centres undefined) stands -0.619; under `COC(=O)c1ccccc1NC(=O)C1CC(=O)N(c2ccc(C)c(C)c2)C1` (centres undefined), -0.903.
For `COc1ccc(-c2nc(-c3cccc(C)c3)nc(Cl)c2C#N)cc1`, the z-score was -0.35.
`CCn1c(SCc2nc3scc(-c4ccccc4)c3c(=O)[nH]2)nnc1-c1ccc(Cl)cc1` showed a z-score of -0.251.
Under `Cc1ccccc1Nc1nc(N)nc(CSc2nc3ccccc3c(=O)n2C)n1` stands 0.919; under `CC(=O)Nc1cc(S(=O)(=O)Nc2ccccc2C)c(C)cc1C`, -0.156.
The molecule `CNCCOc1ccccc1C(C)(C)C` showed a z-score of 0.802.
In the case of `CCOC(=O)/C=C/S(=O)(=O)c1ccc(NC(C)=O)cc1` it was -0.538.

For the origin of these results see PubChem BioAssay AID488969 (Vanderbilt High Throughput Screening Facility, 2010).
